# Measured values from PubChem BioAssay (Tox21).
# Inconclusive means that the source gave no clear call. Such entries were picked first, then a sample of the others. Where a call stands in place of a potency, no number is given. For some assays here: Potencies of inconclusive entries are doubtful fits and often do not repeat. Where a structure was tested more than once in an assay, its records may differ in their call. Active and inactive are the calls of the source. Unless noted, calls come from the whole dose curve; as a rule, active = well fitted curve in the direction sought with a large enough effect in the repeat runs; inconclusive = weak or mixed curves; inactive = no such curve, though single readings can be large; an effect the other way counts as inactive or inconclusive.
# Key:
# [1] = qHTS assay to identify small molecule agonists of the hypoxia (HIF-1) signaling pathway (AID 1224846; active = well fitted activation curve with a large enough effect in the signal ratio in the repeat runs, not every such curve was filed as active; inconclusive = weak or mixed curves; the % refers to the signal ratio; note: potency is the fitted concentration of half-maximal effect); details: HRE-bla ME-180 cells, beta-lactamase ratio, 17 h; activation: at 76.8 µM (top of the series) unless noted
# Procedure, shortened: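 Hypoxia-pathway activation was scored as increased beta-lactamase from an HRE-controlled reporter in ME-180 cells; plated at 2,000 cells per well with 0.5% dialyzed FBS, they were exposed 17 hrs to compounds and then given CCF4-AM.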
# [2] = qHTS assay to identify small molecule agonists of the estrogen related receptor signaling pathway with the pleiotropic PPARgamma coactivator (PGC) from Tox21 10K library (AID 1224842); note: nearly all actives have a fitted effect of over 15% in size; note: potency is the fitted concentration of half-maximal effect
# Procedure, shortened: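 Luminescence from One-Glo (30 min, room temperature) measured after PGC/ERR cells had 18 h at 37 C with pinned compound (23 nL in DMSO). Cells had been seeded at 2,000 per well and pre-incubated 6 h.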
# [3] = target: Aromatase (Homo sapiens) (UniProt P11511); test: qHTS assay to identify aromatase inhibitors (AID 743083); note: potency is the fitted concentration of half-maximal effect; nearly all actives have a fitted effect of over 55% in size
# UniProt P11511, sequence (P11511 whole entry, looked up): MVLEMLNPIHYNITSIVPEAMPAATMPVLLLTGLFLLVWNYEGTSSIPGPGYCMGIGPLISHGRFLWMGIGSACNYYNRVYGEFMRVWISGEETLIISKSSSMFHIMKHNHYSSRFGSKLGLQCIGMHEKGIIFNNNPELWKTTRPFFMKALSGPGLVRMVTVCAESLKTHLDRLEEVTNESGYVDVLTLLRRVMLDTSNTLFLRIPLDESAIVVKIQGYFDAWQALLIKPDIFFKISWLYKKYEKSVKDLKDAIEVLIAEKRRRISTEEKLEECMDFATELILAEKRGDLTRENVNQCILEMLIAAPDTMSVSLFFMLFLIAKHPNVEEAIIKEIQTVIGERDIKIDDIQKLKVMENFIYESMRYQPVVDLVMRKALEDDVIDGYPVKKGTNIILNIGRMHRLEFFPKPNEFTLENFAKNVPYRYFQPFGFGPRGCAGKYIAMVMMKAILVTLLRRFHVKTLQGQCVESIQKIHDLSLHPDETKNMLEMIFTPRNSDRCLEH
# [4] = qHTS assay to identify small molecule HDAC inhibitors (AID 1259364);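 note: wild-type HCT-116 cells with endogenous class I/II HDAC activity; potency is the fitted concentration of half-maximal effect; nearly all actives have a fitted effect of over 45% in size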
# Procedure, shortened: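 Relative class I and II HDAC activity is taken from the luminogenic signal in HCT-116 cells, with compound exposure 2 hr and reagent development 30 min at room temperature.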
# [5] = qHTS assay to identify small molecule antagonists of the TGF-beta/Smad signaling pathway - cell viability counter screen (AID 1346824); note: nearly all actives have a fitted effect of over 50% in size; note: potency is the fitted concentration of half-maximal effect
# Procedure, shortened: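 Cytotoxicity counter-screen run in the same wells as the beta-lactamase Smad reporter read: CellTiter-Glo luminescence after 30 min at room temperature. HEK 293T SBE-bla cells had 5 hr compound exposure at 37 C with TGF-beta1 (0.25 ng/mL stock).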
# [6] = qHTS assay for small molecule activators of the heat shock response signaling pathway - cell viability counter screen (AID 743209); details: HSE-bla HeLa viability, CellTiter-Glo luminescence, 5 h; activity change, negative = cytotoxicity: at 62.6 µM (top of the series); note: nearly all actives have a fitted effect of over 50% in size; note: potency is the fitted concentration of half-maximal effect
# Procedure, shortened: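 Counter screen for cytotoxicity in HeLa HSE-bla reporter cells. Treatment was 5 h at 37 C; viability was detected by luminescent ATP assay (CellTiter-Glo) in the same wells as the beta-lactamase read.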
# [7] = qHTS RealTime-Glo MT Cell Viability Assay in HepG2 cells - 32 hour (AID 1224877); note: nearly all actives have a fitted effect of over 55% in size
# Procedure, shortened: (§1)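 Cells + NanoLuc/prosubstrate dispensed (600 cells/well) → 5 h at 37 C/5% CO2 → compounds in DMSO transferred → 40 h incubation at 37 C, luminescence read at 0, 8, 16, 24, 32, 40 h.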
# [8] = qHTS assay to identify small molecule agonists of the estrogen related receptor (ERR) signaling pathway from Tox21 library (AID 1224849; calls by dose curve; note: nearly all actives have a fitted effect of over 15% in size); details: ERR reporter cell line, ONE-Glo luciferase, 18 h; at 92.4 µM (top of the series) unless noted
# Procedure, shortened: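 Six hours post-seeding at 37 C/5% CO2, ERR cells receive DMSO-solubilised compounds; after 18 h at 37 C, ONE-Glo reagent is applied and luminescence recorded.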
# [9] = qHTS RealTime-Glo MT Cell Viability Assay in HepG2 cells - 16 hour (AID 1224885); note: nearly all actives have a fitted effect of over 50% in size; note: potency is the fitted concentration of half-maximal effect
# Procedure, shortened: as §1
# [10] = qHTS assay to identify small molecule antagonists of the farnesoid-X-receptor (FXR) signaling pathway - cell viability counter screen (AID 743221; active = well fitted cell-killing curve with a large enough effect in the repeat runs, not every such curve was filed as active; inconclusive = weak or mixed curves, or effect the other way; inactive = no such curve, though single readings can be large or run the other way; note: nearly all actives have a fitted effect of over 50% in size; note: potency is the fitted concentration of half-maximal effect); details: FXR-bla HEK293T viability, CellTiter-Glo luminescence, 16 h; activity change, negative = cytotoxicity: at 62.6 µM (top of the series) unless noted
# Procedure, shortened: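 GeneBLAzer FXR-UAS-bla HEK 293T cells, compound plus chenodeoxycholic acid (50 uM final), 16 h at 37 C. CellTiter-Glo added to the same wells after the beta-lactamase read; luminescence read after 30 min at room temperature as viability.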
# [11] = qHTS assay to identify small molecule that activate the aryl hydrocarbon receptor (AhR) signaling pathway - cell viability counter screen (AID 743086); note: nearly all actives have a fitted effect of over 45% in size; note: potency is the fitted concentration of half-maximal effect;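 for viability change, negative = cytotoxic: HepG2 liver cells carrying the AhR DRE luciferase reporter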
# Procedure, shortened: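 Cytotoxicity counter screen: CellTiter-Fluor signal (30 min, 37 C) in 4000 HepG2 cells/well carrying the DRE-luciferase reporter, following 24 h compound exposure at 37 C.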
# [12] = qHTS RealTime-Glo MT Cell Viability Assay in HepG2 cells - 40 hour (AID 1224870); note: nearly all actives have a fitted effect of over 50% in size
# Procedure, shortened: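 Real-time viability: cells seeded at 600 per well together with NanoLuc and cell-permeant prosubstrate, compounds added after 5 h incubation. Luminescence tracked at 0, 8, 16, 24, 32 and 40 h of exposure.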
# [13] = qHTS RealTime-Glo MT Cell Viability Assay in HepG2 cells - 24 hour (AID 1224867); note: nearly all actives have a fitted effect of over 50% in size
# Procedure, shortened: as §1
# [14] = target: Thyrotropin-releasing hormone receptor (Homo sapiens) (UniProt P34981); test: qHTS assay to identify small molecule antagonists of the thyrotropin-releasing hormone receptor (TRHR) signaling pathway (AID 1346877; active = well fitted inhibition curve with a large enough effect in the repeat runs, not every such curve was filed as active; inconclusive = weak or mixed curves)
# UniProt P34981, sequence (P34981 whole entry, looked up): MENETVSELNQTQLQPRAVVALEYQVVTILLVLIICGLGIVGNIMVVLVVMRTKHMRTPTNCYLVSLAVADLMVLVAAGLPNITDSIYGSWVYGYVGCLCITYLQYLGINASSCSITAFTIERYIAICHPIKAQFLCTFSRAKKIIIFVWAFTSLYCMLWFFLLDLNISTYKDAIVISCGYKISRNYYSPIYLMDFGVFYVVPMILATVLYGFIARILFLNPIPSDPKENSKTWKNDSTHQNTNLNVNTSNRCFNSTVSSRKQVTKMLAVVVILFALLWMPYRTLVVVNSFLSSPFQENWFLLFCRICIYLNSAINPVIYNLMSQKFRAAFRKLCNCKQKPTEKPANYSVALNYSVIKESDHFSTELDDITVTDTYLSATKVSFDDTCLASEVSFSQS
# Procedure, shortened: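 Screening used HEK293 cells engineered with TRHR, with a brief 5 min room-temperature compound exposure preceding addition of TRH to 1 nM. The read-out was kinetic calcium-dye fluorescence, concentration-response from 15 doses in triplicate.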
# [15] = qHTS assay to identify small molecule HDAC inhibitors - cell viability counter screen (AID 1259365); note: nearly all actives have a fitted effect of over 50% in size
# Procedure, shortened: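 Wild-type HCT-116 cells, 1,500/well, cultured overnight, then compound-treated 2 h at 37 C. Viability measured as ATP luminescence with CellTiter-Glo after 30 min at room temperature.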
# [16] = qHTS assay to identify small molecule antagonists of the glucocorticoid receptor (GR) signaling pathway - cell viability counter screen (AID 720693); details: GR-bla HeLa viability, CellTiter-Glo luminescence, 18 h, with 5 nM dexamethasone present; viability change, negative = cytotoxic: at 58.5 µM (top of the series) unless noted; note: nearly all actives have a fitted effect of over 55% in size; note: potency is the fitted concentration of half-maximal effect
# [17] = target: Acetylcholinesterase (Homo sapiens) (UniProt P22303); test: Acetylcholinesterase (AChE) small molecule antagonists: enzyme-based qHTS assay (AID 1347397; calls by dose curve; note: nearly all actives have a fitted effect of over 55% in size; note: potency is the fitted concentration of half-maximal effect); details: Potency: AChE enzyme activity inhibition; outcome: AChE enzyme activity inhibition
# UniProt P22303, sequence (P22303 whole entry, looked up): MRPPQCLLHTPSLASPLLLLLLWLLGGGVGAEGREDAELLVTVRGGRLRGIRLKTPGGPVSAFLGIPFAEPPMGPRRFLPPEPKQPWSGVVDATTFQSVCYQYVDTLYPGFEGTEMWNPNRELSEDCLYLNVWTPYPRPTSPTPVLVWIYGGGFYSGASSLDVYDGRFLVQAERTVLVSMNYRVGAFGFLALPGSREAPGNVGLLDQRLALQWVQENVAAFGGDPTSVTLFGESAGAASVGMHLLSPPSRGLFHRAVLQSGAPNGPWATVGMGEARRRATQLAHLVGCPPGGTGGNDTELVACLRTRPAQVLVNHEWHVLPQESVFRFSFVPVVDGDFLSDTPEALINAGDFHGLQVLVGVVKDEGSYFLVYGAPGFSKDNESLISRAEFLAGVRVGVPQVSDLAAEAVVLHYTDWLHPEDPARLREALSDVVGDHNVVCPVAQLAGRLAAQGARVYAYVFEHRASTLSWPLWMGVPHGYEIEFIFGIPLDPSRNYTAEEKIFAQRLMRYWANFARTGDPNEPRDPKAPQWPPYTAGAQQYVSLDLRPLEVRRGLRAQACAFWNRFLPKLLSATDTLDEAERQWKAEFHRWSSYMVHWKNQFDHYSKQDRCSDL
# Procedure, shortened: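 Absorbance-based detection of thiocholine with DTNB served as the read-out. Recombinant human AChE was exposed to compound for 30 min at RT before a 10 min RT incubation with acetylthiocholine.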
# [18] = qHTS assay for small molecule disruptors of the mitochondrial membrane potential - cell viability (AID 720634; calls by dose curve; note: nearly all actives have a fitted effect of over 20% in size; note: potency is the fitted concentration of half-maximal effect;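 for activity change, negative = cytotoxicity: human HepG2 liver cancer cells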)
# Procedure, shortened: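 Measuring cytotoxicity alongside mitochondrial potential, the screen quantified ATP by luminescence in HepG2 cells after 1 hr compound incubation and a 30 min room-temperature CellTiter-Glo step.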
# [19] = A CellTox Green Cytotoxicity Assay to monitor cytotoxicity in HEK293 cells - 0 hour (AID 1224869); note: nearly all actives have a fitted effect of over 50% in size; note: potency is the fitted concentration of half-maximal effect
# Procedure, shortened: (§2)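 Seeding of HEK293 cells together with cytotoxicity dye preceded a 5 h incubation at 37 C/5% CO2. Test compounds in DMSO were then added and fluorescence monitored across 40 h.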
# [20] = A CellTox Green Cytotoxicity Assay to monitor cytotoxicity in HEK293 cells - 8 hour (AID 1224884); note: nearly all actives have a fitted effect of over 35% in size
# Procedure, shortened: as §2
# Tags give direction and shape of the fitted curve or compound fluorescence and quenching.
compound,measurement,setting,value
CCCBr,Potency,[1],inactive
O=c1[nH]oc2c1CCNC2,Potency,[2],inactive
O=C(Nc1ccccc1)c1ccccc1I,Potency,[3],"inconclusive: 61.1 µM [inhibitor, partial curve, poor fit]"
same,Potency,[4],"inconclusive: 27.3 µM [inhibitor, partial curve]"
CS(=O)(=O)NC(=O)c1cc(Oc2ccc(C(F)(F)F)cc2Cl)ccc1[N+](=O)[O-],Potency,[5],inactive
O=[N+]([O-])c1cccc2c([N+](=O)[O-])cccc12,Potency,[6],"inconclusive: 3.91 µM [rising, full curve, poor fit]"
same,Potency,[7],inactive
CCOc1ccc(N)cc1,Potency,[3],"inconclusive: 38.6 µM [inhibitor, partial curve]"
CC(C)OC(=O)Nc1ccccc1,Potency,[2],inactive
O=C=NC1CCCCC1,"activity change, positive = activation",[8],inconclusive: 23.4%
same,Potency,[7],inactive
Nc1ccc2ccccc2c1,"activity change, positive = activation",[8],inconclusive: 20%
same,Potency,[9],inactive
ClCOCCl,Potency,[10],"inconclusive: 15.6 µM [rising, full curve, poor fit]"
same,Potency,[7],inactive
O=C(N/N=C/c1ccc([N+](=O)[O-])o1)c1cc([N+](=O)[O-])cc([N+](=O)[O-])c1O,Potency,[11],active: 29.8 µM
Cc1cc(-c2cc(C)c(N)c(C)c2)cc(C)c1N,Potency,[12],inactive
O=[N+]([O-])c1ccc2c3c(cccc13)CC2,Potency,[13],inactive
same,Potency,[14],inactive
COC(=O)c1ccccc1C(=O)OC,Potency,[2],"inconclusive: 0.154 µM [activator, partial curve, poor fit]"
same,"activity change, positive = activation",[8],active: 10.9%
same,Potency,[15],inactive
CC[C@@H](CO)NC(=O)[C@@H]1C=C2c3cccc4[nH]cc(c34)C[C@H]2N(C)C1,Potency,[16],"inconclusive: 26.8 µM [rising, single point]"
same,Potency,[10],inactive
same,Potency,[17],"inconclusive: 34.7 µM [falling, partial curve]"
CCCCCCCCOC(=O)c1ccc(C(=O)OCCCCCCCC)c(C(=O)OCCCCCCCC)c1,Potency,[10],"inconclusive: 49.6 µM [falling, partial curve, poor fit]"
same,Potency,[5],"inconclusive: 1.76 µM [cytotoxic, partial curve]"
CCCN1CCC[C@@H]2Cc3nc(N)ncc3C[C@H]21,Potency,[18],inactive
same,Potency,[19],"inconclusive: 21.3 µM [activator, partial curve, poor fit]"
CCCCCCCCBr,Potency,[15],inactive
CCOP(=S)(OCC)Oc1cc(-c2ccccc2)on1,Potency,[5],"inconclusive: 24.5 µM [cytotoxic, single point]"
Nc1ccc(Cc2ccc(N)cc2)cc1,Potency,[11],inactive
same,Potency,[17],inactive
CCOC(=O)C(c1c(O)c2ccccc2oc1=O)c1c(O)c2ccccc2oc1=O,Potency,[17],inactive
COc1ccc2c(c1OC)CN1CCc3cc4c(cc3C1C2)OCO4 (stereo not drawn),Potency,[6],inactive
Fc1ccc(C2(Cn3cncn3)OC2c2ccccc2Cl)cc1 (stereo not drawn),Potency,[11],"inconclusive: 77 µM [falling, single point]"
Cc1nc2ccccc2c(=O)n1-c1ccccc1Cl,Potency,[11],active: 47.5 µM
same,Potency,[9],"inconclusive: 42.7 µM [cytotoxic, partial curve, poor fit]"
CN(C)NC(=O)CCC(=O)O,Potency,[10],inactive
same,"activity change, positive = activation",[8],active: 12.8%
same,Potency,[15],inactive
ClCc1cccnc1,Potency,[1],inactive
NC(=O)CN1CCCC1=O,Potency,[19],inactive
CCNc1nc(Cl)nc(NC(C)(C)C)n1,Potency,[1],"inconclusive: 54.9 µM [activator, partial curve, poor fit]"
COC(=O)c1ccc(CBr)cc1,Potency,[4],"inconclusive: 34.8 µM [inhibitor, partial curve]"
CCCCc1c(C)nc(NCC)nc1OS(=O)(=O)N(C)C,Potency,[18],"inconclusive: 54.5 µM [cytotoxic, partial curve]"
Clc1ccc(C2(Cn3cncn3)CC(Br)CO2)c(Cl)c1 (stereo not drawn),Potency,[16],inactive
same,Potency,[11],"inconclusive: 68.2 µM [falling, partial curve, poor fit]"
same,Potency,[20],inactive
same,Potency,[9],"inconclusive: 54.6 µM [cytotoxic, partial curve, poor fit]"
CCOC1Oc2ccc(OS(C)(=O)=O)cc2C1(C)C (stereo not drawn),Potency,[17],inactive
ClCCCCl,Potency,[12],inactive
same,Potency,[14],inactive
